{"source": "paper PMC10726135", "note": "The other results are listed elsewhere or left out. At the low end of the ranking the order means little. Measured with an extract: partners may take part in the binding."}
{"molecular_target": "T1, HNF4alpha2 (COS-7 nuclear extract) (UniProt P41235)", "T1 sequence": "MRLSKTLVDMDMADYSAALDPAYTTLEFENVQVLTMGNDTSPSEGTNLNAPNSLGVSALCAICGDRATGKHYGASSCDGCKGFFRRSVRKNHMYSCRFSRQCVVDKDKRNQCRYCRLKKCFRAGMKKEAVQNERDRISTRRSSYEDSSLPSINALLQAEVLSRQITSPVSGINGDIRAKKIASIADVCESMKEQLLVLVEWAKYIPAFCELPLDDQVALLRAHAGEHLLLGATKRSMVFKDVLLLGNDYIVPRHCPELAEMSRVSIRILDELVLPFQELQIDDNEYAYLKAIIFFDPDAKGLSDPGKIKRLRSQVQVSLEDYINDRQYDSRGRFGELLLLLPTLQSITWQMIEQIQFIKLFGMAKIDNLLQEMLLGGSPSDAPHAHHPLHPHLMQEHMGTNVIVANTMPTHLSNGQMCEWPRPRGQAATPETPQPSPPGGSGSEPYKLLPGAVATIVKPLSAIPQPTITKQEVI", "assay": "protein-binding microarray", "conditions": "COS-7 nuclear extract on double-stranded Agilent 4x180k PBM; binding buffer, salt, pH and temperature not given; high values mean tight binding; double strand, one strand shown; sequences stand for … in …GCCTAGGGAGATTAGAGTATCGGTCGA"}
{"sequence": "TGTGGCTAACAATATGGGGTGGGGAAGAAG", "binding signal (log2 normalized intensity)": -1.13}
{"sequence": "AGAGCACAACCTTTGGCCGTGCATGCTTGG", "binding signal (log2 normalized intensity)": 1.84}
{"sequence": "TCCAAATTCCTTGGAATACATGGAATGCTC", "binding signal (log2 normalized intensity)": -0.18}
{"sequence": "AGCCCAAGAAGCGTCAGTTGCCTCGCCAGA", "binding signal (log2 normalized intensity)": -1.07}
{"sequence": "GGGCTCCCACCAGGGGGAGGCTCAGAGTCT", "binding signal (log2 normalized intensity)": -1.08}
{"sequence": "ACATGAGCTAGTGCTAAAGGTCATATCCAA", "binding signal (log2 normalized intensity)": 4.2}
{"sequence": "GCAGGTGGCTACATGATGTCAGTTTGACTC", "binding signal (log2 normalized intensity)": 0.999}
{"sequence": "GTGGTCTTTATGACTTGGGTGCACCAATGA", "binding signal (log2 normalized intensity)": 2.04}
{"sequence": "AGGAGCCAAAGTCCTTCCCAAGTCCTGCAT", "binding signal (log2 normalized intensity)": 1.63}
{"sequence": "AAAATAGTTTCAACTTAACCCCAGTTTAGC", "binding signal (log2 normalized intensity)": 2.16}
{"sequence": "TCCACAGTCAAGGCCAAAGGTTAAAAATAA", "binding signal (log2 normalized intensity)": 3.7}
{"sequence": "TGATCCATTCTACCCCTGTGGTTGACCTTT", "binding signal (log2 normalized intensity)": 7.8}
{"sequence": "CCCCTTGCTGAGTGGAAAAACACCTGGTTC", "binding signal (log2 normalized intensity)": 0.86}
{"sequence": "GGGATCAGCAATGCTCAGCCCACCTTTTGG", "binding signal (log2 normalized intensity)": -1.15}
{"sequence": "CCTGGATGCCAGGCAAGAGCTCAGAAGCCA", "binding signal (log2 normalized intensity)": -1.06}
{"sequence": "GCCCACAATTGCATGTTCAACAGACAGCTG", "binding signal (log2 normalized intensity)": -1.08}
{"sequence": "TGTGGGTAATTAATCTGATCGCCCTCCCCC", "binding signal (log2 normalized intensity)": 5.26}
{"sequence": "ATTAGTCTCTGCTGGCTTTCCACTCAGGCT", "binding signal (log2 normalized intensity)": -1.19}
{"sequence": "ACAGGGGCCCAAGATAAAGGGACAGGGGTC", "binding signal (log2 normalized intensity)": 0.84}
{"sequence": "AAGGCTGTCACACTGGCCTTTGCCCTCGCT", "binding signal (log2 normalized intensity)": 4.98}
{"sequence": "GCAACAGGAAACAGCCTGTGTTCTCTCAAC", "binding signal (log2 normalized intensity)": -1.1}
{"sequence": "GAGAGGCTTATGCATGGGAGATCTTCAGTA", "binding signal (log2 normalized intensity)": -0.167}
{"sequence": "GAAAGACGAAAGGGACTTTGATCTTCTTAC", "binding signal (log2 normalized intensity)": 5.53}
{"sequence": "AGCTCTTTCCATTTTTGCTCCTGCACTTTT", "binding signal (log2 normalized intensity)": 2.16}
{"sequence": "GAGTACACTCAGCTGTGTCTACCCTTTTGC", "binding signal (log2 normalized intensity)": 1.06}
{"sequence": "GTAGGGCAGCAGCCGGCCTCTTAACAGATG", "binding signal (log2 normalized intensity)": -1.23}
{"sequence": "GCATCCCAGTAGAAAAAAAAATGGGCAAAG", "binding signal (log2 normalized intensity)": -1.04}
{"sequence": "AGGAATTTGGCTCTAGAGGAGTCCCCTTAA", "binding signal (log2 normalized intensity)": 0.67}
{"sequence": "AGACAGCATAGGAAGTGGGGAAGAAGTGTT", "binding signal (log2 normalized intensity)": -1.07}
{"sequence": "GCAGGGAAGGAGAGTGACCTCTGCTTGAAG", "binding signal (log2 normalized intensity)": 1.82}
{"sequence": "GGGAAGGCTAGCATTCCTGCACACCTGCCT", "binding signal (log2 normalized intensity)": -1.12}
{"sequence": "TCTTGTGGGCTGGGAGCTAATGAGCACATT", "binding signal (log2 normalized intensity)": -0.92}
{"sequence": "TACAGCAGGGTAGAAAAGAGTTAAAAAAAA", "binding signal (log2 normalized intensity)": -0.216}
{"sequence": "ATCCTTCAAAGCTGAGAATTGGGAGGGCTT", "binding signal (log2 normalized intensity)": -0.958}
{"sequence": "ATTATTGCCTGGCATCTAACCTTCGTCCTT", "binding signal (log2 normalized intensity)": 3.69}
{"sequence": "TAGCCTCAAATTCCTGGGCTCAAACAATCC", "binding signal (log2 normalized intensity)": -1.19}
{"sequence": "ATTTCACAGCAACCTCAGACCTCTCCCGCC", "binding signal (log2 normalized intensity)": 1.47}
{"sequence": "CCACATACAAGTCACTCTTCATTTCCCTCA", "binding signal (log2 normalized intensity)": -1.08}
{"sequence": "CTTGTCTGGCCTTCCTGGCCCTAGCTGGGT", "binding signal (log2 normalized intensity)": 0.579}
{"sequence": "CGCCGCATCTACCAGCGTAATTCTGGCTCT", "binding signal (log2 normalized intensity)": -1.08}
{"sequence": "TGCTGGAATGAAGACTCACATCTATCTCCC", "binding signal (log2 normalized intensity)": -0.596}
{"sequence": "TACCAGGAATATTGCCCCCTAATGGTATTT", "binding signal (log2 normalized intensity)": 3.16}
{"sequence": "AAAGTCTTTCTCTTTCAAGATAACAAGGCA", "binding signal (log2 normalized intensity)": 1.37}
{"sequence": "TTGGCCCTCAGCCCAATGTGGTAGGATGGC", "binding signal (log2 normalized intensity)": 0.097}
{"sequence": "ATAACATGAGGTAGAGGGACACTGATAACA", "binding signal (log2 normalized intensity)": -1.13}
{"sequence": "GTTGTACCTGACTAAAACCTGCTGCAGGAG", "binding signal (log2 normalized intensity)": -1.1}
{"sequence": "GCTCCCCCAGTGAGCAATTCTTGTCCCTTT", "binding signal (log2 normalized intensity)": 2.85}
{"sequence": "AGCCAAGATTACAGCCACATGCTAACACAC", "binding signal (log2 normalized intensity)": -1.15}
{"sequence": "GCAGCCCAGCAAAGAGGGTCAAAGCCCAGG", "binding signal (log2 normalized intensity)": -1.05}
{"sequence": "AGGGGGGTGGGCACCCCTGCCCCCATGTTG", "binding signal (log2 normalized intensity)": 2.97}
{"sequence": "AGCAGGGGGCGCAGAAGGGATGGGAACCGA", "binding signal (log2 normalized intensity)": -1.28}
{"sequence": "AAACTGTTATCTCTCAACTCAGTGAGGGCT", "binding signal (log2 normalized intensity)": -0.882}
{"sequence": "AAACCCACGCCCACCCTATTGATGCAAGGA", "binding signal (log2 normalized intensity)": 2.16}
{"sequence": "GCACGCACACCGAGCACGGTGCAGGGAGGA", "binding signal (log2 normalized intensity)": -1.11}
{"sequence": "TAATGATTTGTAAATCTCTAGTCCCAGCCT", "binding signal (log2 normalized intensity)": -1.26}
{"sequence": "TTCATCCTGAGAGGGCTCAAGGTCTGCATG", "binding signal (log2 normalized intensity)": 1.29}
{"sequence": "GCCGGTTCCCGCCCAAGGAGACAGGCTTTG", "binding signal (log2 normalized intensity)": -1.11}
{"sequence": "AGACACGCCTTGCACAAATTTCAGATATCT", "binding signal (log2 normalized intensity)": -0.77}
{"sequence": "GTAGTGGTTGAATTTCAGAGGGAAGAGGAA", "binding signal (log2 normalized intensity)": -0.562}
{"sequence": "GCCCCACTGGGGTGGAGATGCCGTCGGCAC", "binding signal (log2 normalized intensity)": -1.07}
{"sequence": "CCTTAAAGCATGACAAAATAACGAAGGCAT", "binding signal (log2 normalized intensity)": -0.565}
{"sequence": "CTCTACTGTCCATCTTTTGCCCCTCTTATG", "binding signal (log2 normalized intensity)": 3.46}
{"sequence": "ATTTTGCTCTTTGTACCGTTTGAACAGCCA", "binding signal (log2 normalized intensity)": 2.36}
{"sequence": "CTCCAGGGGACTGCCTCTTCAGGAGGCACT", "binding signal (log2 normalized intensity)": -1.11}
{"sequence": "CGCGCGTGTGGATACGATGACATCATCTGT", "binding signal (log2 normalized intensity)": 1.11}
{"sequence": "ATTTCAAACCTTTGCCCCACTCTCCTCTGC", "binding signal (log2 normalized intensity)": 3.44}
{"sequence": "AGACTTTGGACCTGGCCCTCTGGGTTGGAA", "binding signal (log2 normalized intensity)": 4.9}
{"sequence": "CTGGAGTCCAAAGGTCAGCAAGCCTGGAGT", "binding signal (log2 normalized intensity)": 6.88}
{"sequence": "GTAAATATGACCTTTGCTTTTCAAGATTTT", "binding signal (log2 normalized intensity)": 3.28}
{"sequence": "TCCAGCCAGGTTGCATCAGCTGGGCTCGGC", "binding signal (log2 normalized intensity)": -1.21}
{"sequence": "ATGATGAAAGCAATGTTTGAGGAAGATTAG", "binding signal (log2 normalized intensity)": -0.61}
{"sequence": "TGCCTGGGTCCTGGGAGCAAACCCCAGCTG", "binding signal (log2 normalized intensity)": -0.985}
{"sequence": "CTGCGTTTTTTCCGAACGCCAGCAGCAGGG", "binding signal (log2 normalized intensity)": -1.2}
